Test results taken from the supplement of paper PMC7238544.
Counter-ions that a name gives are not always drawn. ± gives the standard deviation of the averaged measurements. The list shows a part of the results.

Assays:
Conditions in all cases: priming compound concentration 100 µM
hAMSC donor 1 [1] = assay: Hoechst total cell count ratio vs vehicle control; higher = more cells (less toxicity)
hAMSC donor 2 [2] = assay: as above
hAMSC donor 1 [3] = assay: transgenic luciferase activity (RLU/mg protein) fold change vs vehicle control (ratio); higher = more transgene expression
hAMSC donor 2 [4] = assay: as above
hAMSC donor 1 [5] = assay: transfection efficiency (EGFP+ cells / Hoechst count) fold change vs vehicle control (ratio); hAMSC are human adipose-derived mesenchymal stem cells given an EGFP-luciferase plasmid by lipofection; higher = enhanced transfection
hAMSC donor 2 [6] = assay: as above
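Throughout, for Hoechst total cell count ratio vs vehicle control: compound added 30 min before Lipofectamine 3000 lipoplex delivery, triplicate-well means expressed against DMSO vehicle control wells of the same 96-well plate.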
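Throughout, for transfection efficiency (EGFP+ cells / Hoechst count) fold change vs vehicle control: compounds added 30 min before Lipofectamine 3000 lipoplex transfection, triplicate means relative to DMSO vehicle wells on the same plate, luciferase RLU normalized to BCA total protein.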
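Throughout, for transgenic luciferase activity (RLU/mg protein) fold change vs vehicle control: compounds in DMSO added 30 min before Lipofectamine 3000 transfection of pEGFP-Luc in 96-well plates, values are means of triplicate wells over DMSO vehicle wells on the same plate.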

CCCN1C[C@H](CSC)C[C@@H]2c3cccc4[nH]cc(c34)C[C@H]21 [Pergolide mesylate]
Hoechst total cell count ratio (hAMSC donor 1 [1]): 1.32 ± 0.2 | Hoechst total cell count ratio (hAMSC donor 2 [2]): 1.07 ± 0.076 | transgenic luciferase activity (hAMSC donor 1 [3]): 0.687 ± 0.034 | transgenic luciferase activity (hAMSC donor 2 [4]): 0.666 ± 0.046 | transfection efficiency (hAMSC donor 1 [5]): 1.61 ± 0.82 | transfection efficiency (hAMSC donor 2 [6]): 0.975 ± 0.17

CN1CC[C@@H](c2ccc(F)cc2)[C@H](COc2ccc3c(c2)OCO3)C1 [N-Methylparoxetine]
Hoechst total cell count ratio (hAMSC donor 1 [1]): 0.136 ± 0.075 | Hoechst total cell count ratio (hAMSC donor 2 [2]): 0.0927 ± 0.041 | transgenic luciferase activity (hAMSC donor 1 [3]): 0.0176 ± 0.011 | transfection efficiency (hAMSC donor 1 [5]): 0.0512 ± 0.089 | transfection efficiency (hAMSC donor 2 [6]): 0.224 ± 0.12

Oc1cc(Cl)ccc1Oc1ccc(Cl)cc1Cl [Triclosan]
Hoechst total cell count ratio (hAMSC donor 1 [1]): 1.32 ± 0.32 | Hoechst total cell count ratio (hAMSC donor 2 [2]): 0.454 ± 0.1 | transgenic luciferase activity (hAMSC donor 1 [3]): 0.297 ± 0.089 | transfection efficiency (hAMSC donor 1 [5]): 1.1 ± 0.18 | transfection efficiency (hAMSC donor 2 [6]): 1.07 ± 0.43

CC(C)N(CCC(C(N)=O)(c1ccccc1)c1ccccn1)C(C)C (stereo not drawn) [Disopyramide phosphate]
Hoechst total cell count ratio (hAMSC donor 1 [1]): 1.15 ± 0.23 | Hoechst total cell count ratio (hAMSC donor 2 [2]): 1.3 ± 0.15 | transgenic luciferase activity (hAMSC donor 1 [3]): 1.45 ± 1 | transgenic luciferase activity (hAMSC donor 2 [4]): 1.49 ± 0.76 | transfection efficiency (hAMSC donor 1 [5]): 1.28 ± 0.18 | transfection efficiency (hAMSC donor 2 [6]): 1.38 ± 0.16

O=C(O)CCCc1ccc(N(CCCl)CCCl)cc1 [Chlorambucil]
Hoechst total cell count ratio (hAMSC donor 1 [1]): 0.661 ± 0.093 | Hoechst total cell count ratio (hAMSC donor 2 [2]): 0.506 ± 0.043 | transgenic luciferase activity (hAMSC donor 1 [3]): 0.353 ± 0.097 | transgenic luciferase activity (hAMSC donor 2 [4]): 0.313 ± 0.15 | transfection efficiency (hAMSC donor 1 [5]): 1.17 ± 0.4 | transfection efficiency (hAMSC donor 2 [6]): 1.4 ± 0.19

COc1cccc(C2(O)CCCCC2CN(C)C)c1 (stereo not drawn) [Tramadol hydrochloride]
Hoechst total cell count ratio (hAMSC donor 1 [1]): 1.22 ± 0.071 | Hoechst total cell count ratio (hAMSC donor 2 [2]): 1.4 ± 0.36 | transgenic luciferase activity (hAMSC donor 1 [3]): 0.472 ± 0.1 | transgenic luciferase activity (hAMSC donor 2 [4]): 1.05 ± 0.34 | transfection efficiency (hAMSC donor 1 [5]): 0.839 ± 0.27 | transfection efficiency (hAMSC donor 2 [6]): 1.18 ± 0.11

CCN(C(C)=O)c1cccc(-c2ccnc3c(C#N)cnn23)c1 [Zaleplon]
Hoechst total cell count ratio (hAMSC donor 1 [1]): 1.56 ± 0.11 | Hoechst total cell count ratio (hAMSC donor 2 [2]): 1.37 ± 0.16 | transgenic luciferase activity (hAMSC donor 1 [3]): 0.698 ± 0.28 | transgenic luciferase activity (hAMSC donor 2 [4]): 1.18 ± 0.21 | transfection efficiency (hAMSC donor 1 [5]): 0.648 ± 0.45 | transfection efficiency (hAMSC donor 2 [6]): 0.993 ± 0.074

CS(=O)(=O)Nc1ccc(Cc2noc(-c3ccc4[nH]cc(CCN)c4c3)n2)cc1
Hoechst total cell count ratio (hAMSC donor 1 [1]): 0.972 ± 0.14 | Hoechst total cell count ratio (hAMSC donor 2 [2]): 1.39 ± 0.29 | transgenic luciferase activity (hAMSC donor 1 [3]): 0.424 ± 0.16 | transgenic luciferase activity (hAMSC donor 2 [4]): 0.539 ± 0.045 | transfection efficiency (hAMSC donor 1 [5]): 0.586 ± 0.096 | transfection efficiency (hAMSC donor 2 [6]): 0.712 ± 0.11

C[C@]12CC[C@H]3[C@@H](CCC4=CC(=O)CC[C@@]43C)[C@@H]1CC[C@@H]2O [Testosterone]
Hoechst total cell count ratio (hAMSC donor 1 [1]): 1.28 ± 0.065 | Hoechst total cell count ratio (hAMSC donor 2 [2]): 0.657 ± 0.13 | transgenic luciferase activity (hAMSC donor 1 [3]): 0.535 ± 0.24 | transgenic luciferase activity (hAMSC donor 2 [4]): 0.264 ± 0.14 | transfection efficiency (hAMSC donor 1 [5]): 1.11 ± 0.31 | transfection efficiency (hAMSC donor 2 [6]): 1.14 ± 0.13

N=C(NCc1ccc(Cl)cc1)SCCCc1c[nH]cn1 [Clobenpropit]
Hoechst total cell count ratio (hAMSC donor 1 [1]): 0.984 ± 0.066 | Hoechst total cell count ratio (hAMSC donor 2 [2]): 1.2 ± 0.34 | transgenic luciferase activity (hAMSC donor 1 [3]): 0.918 ± 0.61 | transgenic luciferase activity (hAMSC donor 2 [4]): 0.61 ± 0.17 | transfection efficiency (hAMSC donor 1 [5]): 1.06 ± 0.54 | transfection efficiency (hAMSC donor 2 [6]): 1.11 ± 0.28

CN1C(=O)CN=C(c2ccccc2)c2cc(Cl)ccc21 [Diazepam]
Hoechst total cell count ratio (hAMSC donor 1 [1]): 1.15 ± 0.047 | Hoechst total cell count ratio (hAMSC donor 2 [2]): 1.02 ± 0.16 | transgenic luciferase activity (hAMSC donor 1 [3]): 2.91 ± 1.4 | transgenic luciferase activity (hAMSC donor 2 [4]): 1.81 ± 0.65 | transfection efficiency (hAMSC donor 1 [5]): 1.65 ± 0.36 | transfection efficiency (hAMSC donor 2 [6]): 1.85 ± 0.73

CNCC(O)c1ccc(O)cc1 (stereo not drawn) [Synephrine]
Hoechst total cell count ratio (hAMSC donor 1 [1]): 1.77 ± 0.24 | Hoechst total cell count ratio (hAMSC donor 2 [2]): 1.07 ± 0.15 | transgenic luciferase activity (hAMSC donor 1 [3]): 1.02 ± 0.091 | transgenic luciferase activity (hAMSC donor 2 [4]): 0.676 ± 0.24 | transfection efficiency (hAMSC donor 1 [5]): 0.942 ± 0.13 | transfection efficiency (hAMSC donor 2 [6]): 0.58 ± 0.13

c1ccc2c(c1)Nc1ccccc1S2 [Phenothiazine]
Hoechst total cell count ratio (hAMSC donor 1 [1]): 1.02 ± 0.028 | Hoechst total cell count ratio (hAMSC donor 2 [2]): 1.25 ± 0.39 | transgenic luciferase activity (hAMSC donor 1 [3]): 1.91 ± 0.21 | transgenic luciferase activity (hAMSC donor 2 [4]): 1.44 ± 0.15 | transfection efficiency (hAMSC donor 1 [5]): 1.52 ± 0.17 | transfection efficiency (hAMSC donor 2 [6]): 1.52 ± 0.35

c1ccc2c3c([nH]c2c1)CNCC3 [Tryptoline]
Hoechst total cell count ratio (hAMSC donor 1 [1]): 1.6 ± 0.11 | Hoechst total cell count ratio (hAMSC donor 2 [2]): 1.09 ± 0.026 | transgenic luciferase activity (hAMSC donor 1 [3]): 1.68 ± 0.3 | transgenic luciferase activity (hAMSC donor 2 [4]): 1.1 ± 0.29 | transfection efficiency (hAMSC donor 1 [5]): 0.56 ± 0.084 | transfection efficiency (hAMSC donor 2 [6]): 0.786 ± 0.11

C[C@]12CC[C@H]3[C@@H](CCC4=CC(=O)CC[C@@H]43)[C@@H]1CC[C@@H]2O [19-Nortestosterone]
Hoechst total cell count ratio (hAMSC donor 1 [1]): 0.987 ± 0.091 | Hoechst total cell count ratio (hAMSC donor 2 [2]): 1.02 ± 0.13 | transgenic luciferase activity (hAMSC donor 1 [3]): 0.681 ± 0.2 | transgenic luciferase activity (hAMSC donor 2 [4]): 0.901 ± 0.079 | transfection efficiency (hAMSC donor 1 [5]): 0.892 ± 0.38 | transfection efficiency (hAMSC donor 2 [6]): 1.1 ± 0.19

OC1CCCCC1N1CCC(c2ccccc2)CC1 (racemic) [(+/-)-Vesamicol hydrochloride]
Hoechst total cell count ratio (hAMSC donor 1 [1]): 1.39 ± 0.41 | Hoechst total cell count ratio (hAMSC donor 2 [2]): 1.08 ± 0.083 | transgenic luciferase activity (hAMSC donor 1 [3]): 0.893 ± 0.31 | transgenic luciferase activity (hAMSC donor 2 [4]): 1.05 ± 0.39 | transfection efficiency (hAMSC donor 1 [5]): 0.999 ± 0.34 | transfection efficiency (hAMSC donor 2 [6]): 0.966 ± 0.094

Oc1ccc2c3c1O[C@H]1[C@@H](O)CC[C@@]4(O)[C@@H](C2)N(CC2CCC2)CC[C@]314 [Nalbuphine hydrochloride]
Hoechst total cell count ratio (hAMSC donor 1 [1]): 1.48 ± 0.12 | Hoechst total cell count ratio (hAMSC donor 2 [2]): 1.23 ± 0.051 | transgenic luciferase activity (hAMSC donor 1 [3]): 1.74 ± 0.93 | transgenic luciferase activity (hAMSC donor 2 [4]): 0.897 ± 0.042 | transfection efficiency (hAMSC donor 1 [5]): 1.12 ± 0.13 | transfection efficiency (hAMSC donor 2 [6]): 0.85 ± 0.11

c1ccc(Cn2ccnc2)cc1 [Benzylimidazole]
Hoechst total cell count ratio (hAMSC donor 1 [1]): 1.55 ± 0.4 | Hoechst total cell count ratio (hAMSC donor 2 [2]): 1.4 ± 0.1 | transgenic luciferase activity (hAMSC donor 1 [3]): 0.31 ± 0.037 | transgenic luciferase activity (hAMSC donor 2 [4]): 0.104 ± 0.027 | transfection efficiency (hAMSC donor 1 [5]): 0.983 ± 0.11 | transfection efficiency (hAMSC donor 2 [6]): 1.15 ± 0.36

C=C(C)[C@@H]1[C@H]2OC(=O)[C@@H]1[C@]1(O)C[C@H]3O[C@]34C(=O)O[C@H]2[C@]14C.CC(C)(O)[C@@H]1[C@H]2OC(=O)[C@@H]1[C@]1(O)C[C@H]3O[C@]34C(=O)O[C@H]2[C@]14C [Picrotin - Picrotoxinin]
Hoechst total cell count ratio (hAMSC donor 1 [1]): 1.31 ± 0.13 | Hoechst total cell count ratio (hAMSC donor 2 [2]): 1.04 ± 0.1 | transgenic luciferase activity (hAMSC donor 1 [3]): 0.19 ± 0.026 | transgenic luciferase activity (hAMSC donor 2 [4]): 1.57 ± 0.38 | transfection efficiency (hAMSC donor 1 [5]): 0.73 ± 0.097 | transfection efficiency (hAMSC donor 2 [6]): 1.26 ± 0.31

CCCC(C)(COC(N)=O)COC(=O)NC(C)C (stereo not drawn) [Carisoprodol]
Hoechst total cell count ratio (hAMSC donor 1 [1]): 1.45 ± 0.18 | Hoechst total cell count ratio (hAMSC donor 2 [2]): 1.61 ± 0.2 | transgenic luciferase activity (hAMSC donor 1 [3]): 0.716 ± 0.44 | transfection efficiency (hAMSC donor 1 [5]): 1.04 ± 0.19 | transfection efficiency (hAMSC donor 2 [6]): 1.03 ± 0.22

CN1[C@@H]2C[C@@H](OC(=O)[C@H](CO)c3ccccc3)C[C@H]1[C@@H]1O[C@@H]12 [Scopolamine hydrobromide]
Hoechst total cell count ratio (hAMSC donor 1 [1]): 1.09 ± 0.15 | Hoechst total cell count ratio (hAMSC donor 2 [2]): 1.17 ± 0.15 | transgenic luciferase activity (hAMSC donor 1 [3]): 4.09 ± 1.4 | transgenic luciferase activity (hAMSC donor 2 [4]): 0.731 ± 0.13 | transfection efficiency (hAMSC donor 1 [5]): 1.55 ± 0.16 | transfection efficiency (hAMSC donor 2 [6]): 1.28 ± 0.07
